Test results from PubChem BioAssay AID624417 (National Center for Advancing Translational Sciences (NCATS), 2012).
“And” between values parts separate entries of the source, which are not always exact repeats. Identical values can stand only once. The whole screen tested about 410,000 compounds, of which about 6,400 (1.6%) were called active. Inconclusive results, whose numbers are uncertain, are shown with a selection of clear calls. Calls follow the shape of the dose curve; as a rule, active = well fitted inhibition curve with a large enough effect; inconclusive = small, poorly fitted or top-dose-only effect; inactive = no such curve, though single readings can be large or run the other way. Potencies beside an inconclusive call are fits to weak or partial responses and may not hold up.
Also: nearly all actives have a fitted effect of over 55% in size.
Potency is read from the fitted curve at half-maximal effect; tags tell the direction and shape of the fitted curve.

These compounds were tested against Glucagon-like peptide 1 receptor (Homo sapiens) (UniProt P43220) (assay: qHTS of GLP-1 Receptor Inverse Agonists (Inhibition Mode)). Details: HEK293 GLP-1R CRE-luciferase, luminescence, 24 h, GLP-1R form is constitutively active; series mostly up to 38.3 µM.
Chain of UniProt P43220 (P43220 whole entry, looked up): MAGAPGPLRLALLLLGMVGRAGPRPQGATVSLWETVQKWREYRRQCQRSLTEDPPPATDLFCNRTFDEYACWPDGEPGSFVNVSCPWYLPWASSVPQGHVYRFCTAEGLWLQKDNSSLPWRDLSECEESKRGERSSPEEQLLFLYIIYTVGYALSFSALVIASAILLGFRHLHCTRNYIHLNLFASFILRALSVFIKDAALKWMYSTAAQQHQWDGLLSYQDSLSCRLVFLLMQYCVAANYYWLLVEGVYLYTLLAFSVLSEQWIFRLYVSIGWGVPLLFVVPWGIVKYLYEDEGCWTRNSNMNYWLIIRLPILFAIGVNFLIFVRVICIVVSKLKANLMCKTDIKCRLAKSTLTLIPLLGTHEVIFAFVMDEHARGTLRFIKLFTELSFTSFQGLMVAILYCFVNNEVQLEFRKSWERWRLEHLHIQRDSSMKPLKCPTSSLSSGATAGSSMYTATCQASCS
Outline: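 Seeding at 200 cells/uL, 12 h culture, 24 hr compound treatment, then luciferase reagent and a luminescence read; cells are HEK293 stably expressing a constitutively active GLP-1R plus cAMP-responsive luciferase.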
`Cc1onc(-c2ccccc2Cl)c1C(=O)Nc1sc2c(c1C#N)CCC2` was tested, and the Potency was inconclusive: 11.2 µM [inhibitor, partial curve, poor fit].
In the case of `CCC(=O)Oc1ccc2c(C)cc(=O)oc2c1C`, the Potency is reported as “inactive”.
With `O=C1CN(C(=O)c2ccc(Cl)c(S(=O)(=O)N3CCc4ccccc43)c2)c2ccccc2N1` the Potency was inconclusive: 15.8 µM [inhibitor, partial curve, poor fit].
For `Cc1cc2nc(-c3ccc(F)cc3)c(Cc3ccsc3)n2c(C)c1Br`, the Potency was inconclusive: 11.2 µM [inhibitor, partial curve].
`CC(=O)Nc1cc(C(=O)NCc2ccco2)ccc1Sc1ccc(Cl)cc1` was tested, and the Potency was inconclusive: 25.1 µM [inhibitor, partial curve, poor fit].
In the case of `COc1ccc2nc3sc(C(=O)NCCN4CCc5ccccc5C4)cc3cc2c1`, the Potency is reported as “inactive”.
In the case of `Cc1ccc(OCc2ccc(C(=O)Nc3ccc(S(N)(=O)=O)cc3)o2)cc1`, the Potency is reported as “inactive”.
With `Cc1ccc(/C=N/N2CCN(Cc3ccc(C)cc3)CC2)cc1` the Potency was “inactive”.
With `COc1ccc(NC(=O)/C=C/c2cccc(Br)c2)cn1` the Potency was inconclusive: 28.2 µM [inhibitor, single point].
`COc1ccc(NC(=O)CN2CCCN(S(=O)(=O)c3ccc(F)cc3)CC2)cc1` was tested, and the Potency was “inactive”.
With `CC(=O)c1ccc(N2CCN(C(=O)COc3ccc(F)cc3)CC2)c(F)c1` the Potency was inconclusive: 14.1 µM [inhibitor, partial curve, poor fit].
With `CCOc1ccc(CNC(=O)c2ccc(Sc3ccc(Cl)cc3)c(NC(C)=O)c2)cc1OC` the Potency was inconclusive: 28.2 µM [inhibitor, single point] and inconclusive: 12.6 µM [inhibitor, partial curve, poor fit].
For `COc1ccc(S(=O)(=O)N2CCOCC2)cc1NC(=O)CC(C)c1ccccc1` (stereo unspecified), the Potency was “inactive”.
In the case of `Cc1ccc(CC2SC(=Nc3ccccc3)N(c3ccccc3)C2=O)cc1` (stereo unspecified), the Potency is reported as inconclusive: 22.4 µM [inhibitor, single point].
`COc1cccc(N(C(=O)c2nc3nccc(C)n3n2)c2nc3ccccc3s2)c1` was tested, and the Potency was inconclusive: 28.2 µM [inhibitor, single point].
In the case of `COC(=O)C1=C(N)N(c2ccccc2C(F)(F)F)C2=C(C(=O)CCC2)C1c1ccc2c(c1)OCO2` (stereo unspecified), the Potency is reported as inconclusive: 28.2 µM [inhibitor, single point].
With `Cc1ccc(NC(=O)C2CCCN(S(=O)(=O)c3cccc4cccnc34)C2)c(C)c1` (stereo unspecified) the Potency was “inactive”.
With `Cc1cc(C)c(OCCN(C)C)c(Cl)c1` the Potency was “inactive”.
In the case of `CCOC(=O)c1sc(NC(=O)c2cc(-c3ccc(F)cc3)on2)c(C(=O)OCC)c1C`, the Potency is reported as “inactive”.
`COc1cccc(C2=NOC(C(=O)NCc3ccccc3)C2)c1` (stereo unspecified) was tested, and the Potency was inconclusive: 2.82 µM [inhibitor, partial curve].
For `COc1ccc(CCC(=O)Nc2ccc(OC)c(S(=O)(=O)N3CCCCC3)c2)cc1OC`, the Potency was “inactive”.
In the case of `Cc1occc1-c1nnc(SCC(=O)NC(C)(C)C)n1C(C)c1ccccc1` (stereo unspecified), the Potency is reported as inconclusive: 28.2 µM [inhibitor, single point].
For `Cc1ccccc1-c1nc2cc(NC(=O)COc3ccc(F)cc3)ccc2o1`, the Potency was “inactive”.
`CSc1ccc(CN(C)C(=O)c2cc3ccccc3o2)cc1` was tested, and the Potency was inconclusive: 28.2 µM [inhibitor, single point].
In the case of `CC1=C(C(=O)Nc2ccc(C)cc2C)C(c2ccccc2)n2ncc(C(=O)Nc3ccccc3)c2N1` (stereo unspecified), the Potency is reported as inconclusive: 12.6 µM [inhibitor, partial curve, poor fit].
For `O=C(c1c(F)cccc1F)N1CCN=C1SCc1ccccc1`, the Potency was inconclusive: 28.2 µM [inhibitor, single point].
In the case of `O=C(COc1ccc2c(c1)OCO2)Nc1ccccc1C(F)(F)F`, the Potency is reported as inconclusive: 28.2 µM [inhibitor, single point].
In the case of `Clc1ccc(N=C2SCC3CCCCN23)cc1` (stereo unspecified), the Potency is reported as inconclusive: 15.8 µM [inhibitor, single point].
In the case of `CCCc1cc(=O)oc2cc(OCC(=O)N3CCOCC3)c(Cl)cc12`, the Potency is reported as inconclusive: 1 µM [inhibitor, full curve, poor fit].
For `O=S(=O)(c1ccc(NC(=S)NC2CCCC2)cc1)N1CCCC1`, the Potency was inconclusive: 12.6 µM [inhibitor, partial curve, poor fit].
In the case of `CCCn1c(SCC(=O)N2CCOCC2)nnc1-c1ccncc1`, the Potency is reported as “inactive”.
`Cc1ccc(S(=O)(=O)N2[C@@H](c3ccc4c(c3)OCO4)C(C(=O)O)=C[C@H]2CC2CCCC2)cc1` was tested, and the Potency was “inactive”.
`COc1cccc(CNC(=O)C2CCN(c3nnc(-n4c(C)ccc4C)s3)CC2)c1` was tested, and the Potency was “inactive”.
With `Cc1cccc(-n2ncc3c(NC4CCCC4)ncnc32)c1` the Potency was inconclusive: 6.31 µM [inhibitor, partial curve, poor fit].
`Cc1ccccc1CS(=O)(=O)c1ncc(Cl)c(C(=O)Nc2ccc(F)cc2)n1` was tested, and the Potency was inconclusive: 14.1 µM [inhibitor, single point].
For `Cc1ccc(C)c(C(O)c2ncc(-c3cccc4ccccc34)[nH]2)c1` (stereo unspecified), the Potency was “inactive”.
With `COc1ccc(/C=N/Nc2cc(C)nc(NS(=O)(=O)c3ccc(C)cc3)n2)cc1` the Potency was inconclusive: 28.2 µM [inhibitor, single point].
For `Fc1ccc(-c2cn3cc(Cc4ccc(Cl)cc4)sc3n2)cc1`, the Potency was “inactive”.
In the case of `CCC(CC)C(=O)Nc1cccc(-c2nc3ccccc3s2)c1`, the Potency is reported as inconclusive: 22.4 µM [inhibitor, single point].
With `O=C(NCc1cccc(F)c1)c1cccc(NC(=O)c2nsc3ccccc23)c1` the Potency was inconclusive: 28.2 µM [inhibitor, single point].
In the case of `O=C(CC(Sc1n[nH]c(-c2ccccc2)n1)c1ccccc1)NCc1ccccc1` (stereo unspecified), the Potency is reported as inconclusive: 0.501 µM [inhibitor, full curve, poor fit].
In the case of `C/C=C/c1ccc(OCC(O)CN2CCCCC2CC)c(OC)c1` (stereo unspecified), the Potency is reported as active: 12.6 µM.
With `O=C(NNC(=O)c1ccccc1F)c1cccc(S(=O)(=O)N2CCc3ccccc32)c1` the Potency was inconclusive: 25.1 µM [inhibitor, partial curve, poor fit].
`COc1ccccc1CN1CC(=O)N2CSC[C@H]2C1=O` was tested, and the Potency was “inactive”.
With `C=CCc1cccc(/C=N/NC(=O)c2ccccc2OC)c1O` the Potency was inconclusive: 1.78 µM [inhibitor, full curve, poor fit].
`CCc1ccc(Nc2nc(N)nc(CSc3nc4ccccc4s3)n2)cc1` was tested, and the Potency was inconclusive: 28.2 µM [inhibitor, single point].
With `CCOCc1cc(CN2CCN(c3cccc(Cl)c3)CC2)c(O)c2ncccc12` the Potency was inconclusive: 1.78 µM [inhibitor, full curve, poor fit].
In the case of `CC(C)C#Cc1cnc2c(c1)C(=O)N([C@@H](C)CO)C[C@@H](C)[C@H](CN(C)Cc1cccc(F)c1)O2`, the Potency is reported as inconclusive: 28.2 µM [inhibitor, single point].
`CC(=O)Nc1cccc(NC(=O)c2c(-c3ccccc3)c(-c3ccccc3)nn(C)c2=O)c1` was tested, and the Potency was “inactive”.
In the case of `Nc1ccc(CCc2nc3ccccc3o2)cc1`, the Potency is reported as “inactive”.
For `CCOC(=O)N1CCC2CC1c1cc(-c3cccc(OC)c3)ccc12` (stereo unspecified), the Potency was inconclusive: 11.2 µM [inhibitor, partial curve, poor fit].
In the case of `C#CCNC(=O)C[C@@H]1C[C@@]2(C(=O)OC)CC(C)(C)CC=C2N(Cc2cccc3ccccc23)C1=O`, the Potency is reported as inconclusive: 31.6 µM [inhibitor, single point].
For `CC(=O)c1cccc(NC(c2ccc(F)cc2)c2nnc(-c3ccccc3)o2)c1` (stereo unspecified), the Potency was inconclusive: 28.2 µM [inhibitor, single point].
For `COCCN(C(=O)COC(=O)Cc1coc2cc3c(cc12)CCC3)c1c(N)n(Cc2ccccc2)c(=O)[nH]c1=O`, the Potency was “inactive”.
In the case of `S=C(NCc1ccccc1Cl)NC1CCCC1`, the Potency is reported as inconclusive: 28.2 µM [inhibitor, single point].
`Cc1cc2ccccn2c1C(=O)c1cc([N+](=O)[O-])cc([N+](=O)[O-])c1` was tested, and the Potency was inconclusive: 1.58 µM [inhibitor, partial curve, poor fit].
For `Cc1ccc(-n2nnnc2CNC(=O)C(C)C)cc1C`, the Potency was “inactive”.
For `Cc1nnsc1C(=O)N/N=C/c1ccc2ccccc2c1O`, the Potency was inconclusive: 1.26 µM [inhibitor, partial curve, poor fit].
For `CCCCN(Cc1ccccc1)C(=O)CCN1C(=O)C2C3C=CC(C3)C2C1=O` (stereo unspecified), the Potency was inconclusive: 28.2 µM [inhibitor, partial curve, poor fit].
For `CCN(CC)CCNC(=O)Cc1nn(Cc2ccccc2)c(=O)c2ccccc12`, the Potency was inconclusive: 28.2 µM [inhibitor, single point].
In the case of `CCCCSc1nc(C)cc(SCC(=O)N/N=C/c2cccc(OC)c2O)n1`, the Potency is reported as inconclusive: 1.58 µM [inhibitor, full curve, poor fit].
For `CCCc1cc(C(=O)Nc2ccc(Cl)cn2)cs1`, the Potency was inconclusive: 28.2 µM [inhibitor, single point].
`COc1ccc(S(=O)(=O)N2CCCCCC2)cc1C(=O)NCc1cccs1` was tested, and the Potency was inconclusive: 22.4 µM [inhibitor, single point].
`CC1(C(=O)NCc2cccs2)Cc2c(-c3ccc4c(c3)OCO4)ccnc2O1` (stereo unspecified) was tested, and the Potency was inconclusive: 1.78 µM [inhibitor, full curve, poor fit].
For `O=C1CC(c2ccccc2)Cc2[nH]c(=O)c(-c3nc(-c4ccc(Cl)cc4)cs3)cc21` (stereo unspecified), the Potency was inconclusive: 0.501 µM [inhibitor, full curve, poor fit].
In the case of `Cc1ccccc1NC(=O)Cc1nc(COC(=O)Cc2cccc(C(F)(F)F)c2)cs1`, the Potency is reported as inconclusive: 12.6 µM [inhibitor, partial curve, poor fit].
